Experimental data from the supplement of paper PMC9446081.
About 220 (0.56%) of roughly 39,000 compounds showed activity. This is one part of the list.

system: Escherichia coli K-12 BW25113; assay: relative growth (OD600 normalised to plate interquartile mean) (fraction); higher = less growth inhibition, active = 0.2 or less; details: 50 µM; LB; incubation time: overnight (16-24 h)
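Further: static incubation at 37 °C against the wild-type strain, values averaged over two biological replicates.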

Structure (SMILES)	relative growth
O=C(NCC(F)(F)F)[C@H]1[C@H](CO)[C@H]2Cn3c(cccc3=O)[C@H]2N1C(=O)C1CCC1	inactive: 1.01
C[C@@H]1CCCCO[C@H](CN(C)Cc2ccccc2)[C@H](C)CN([C@@H](C)CO)C(=O)c2cc(NC(=O)CCC(F)(F)F)ccc2O1	inactive: 0.988
C[C@@H]1CCCCO[C@H](CN(C)C(=O)c2ccccc2)[C@H](C)CN([C@H](C)CO)C(=O)c2cc(NC(=O)C3CCCCC3)ccc2O1	inactive: 0.983
O=C(CC1CC1)NCc1cnc2n1CCNCC2	inactive: 1.01
CC(=O)NCCn1cccc1	inactive: 1.01
COc1ccc2occ(C(C)=O)c2c1	inactive: 0.977
C[C@@H]1CCCCO[C@@H](CN(C)Cc2ccc3c(c2)OCO3)[C@H](C)CN([C@H](C)CO)C(=O)c2cc(NC(=O)Cc3ccccc3)ccc2O1	inactive: 1
COc1ccc(NC(=O)Nc2ccc3c(c2)C(=O)N([C@H](C)CO)C[C@H](C)[C@@H](CN(C)S(=O)(=O)c2ccc(F)cc2)OCCCC[C@@H](C)O3)cc1	inactive: 1
O=C(CS)NCCCCCCNC(=O)[C@@H]1C[C@@H]2C(=O)N[C@@H](Cc3ccccc3)C(=O)N2[C@@H]1c1ccc(O)cc1	inactive: 0.996
O=C(O)[C@H](O)[C@@H](O)[C@H](O)[C@H](O)CO	inactive: 0.975
C[C@H]1CN([C@@H](C)CO)C(=O)c2c(c3ccccc3n2C)-c2ccccc2CO[C@@H]1CN(C)Cc1ccc(Cl)c(Cl)c1	inactive: 0.978
COC(=O)[C@@H](Cc1ccc(-n2cc(C(=O)NO)nn2)cc1)N1CC(/C=C/C2CC2)=C[C@H]1[C@H](O)Cc1ccccc1	inactive: 1.01
C[C@@H]1CN([C@H](C)CO)C(=O)c2cccc(NC(=O)Nc3ccc4c(c3)OCO4)c2O[C@H]1CN(C)Cc1ccc(C(F)(F)F)cc1	inactive: 0.854
N[C@@H](CO)c1cccc(Br)c1	inactive: 0.934
C[C@@H]1CN([C@H](C)CO)C(=O)c2cc(NC(=O)Cc3cn(C)c4ccccc34)ccc2O[C@@H]1CN(C)S(C)(=O)=O	inactive: 0.992
COc1cc(OC)cc(-c2ccc([C@H]3CC(=O)C[C@@H](c4ccccc4)C34C(=O)OC(C)(C)OC4=O)cc2)c1	inactive: 1.02
CC[C@@H](CN)Cc1ccccc1	inactive: 0.923
COc1ccc(NC(=O)N(C)C[C@@H]2OCc3ccccc3-c3c(n(C)c4ccccc34)C(=O)N([C@@H](C)CO)C[C@H]2C)cc1	inactive: 1
C[C@H]1CN([C@@H](C)CO)S(=O)(=O)c2ccc(C3=CCCC3)cc2O[C@H]1CN(C)C(=O)Cc1ccncc1	inactive: 1
